The supplement of paper PMC4604168 (melanoma cell lines)
This is one part of the list. Repeats are few or missing, and single values can be far off.

These compounds were tested on COLO792 (assay: cell count relative to DMSO control; melanoma cells; higher = more viable cells). Conditions: library dose: low library concentration; 72 h.
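Note: cell number obtained by counting DAPI-stained nuclei in high-throughput microscope images with image analysis software, screen run in 1,536-well plates.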

Compound | cell count
COCC[n+]1c2c(n(Cc3cnccn3)c1C)C(=O)c1ccccc1C2=O + C/C(O)=C(\C#N)C(=O)Nc1cc(Br)ccc1Br [LFM-A13] (first compound 0.0004 µM, partner dose 2 µM) | 96.6%
Cc1cc(Nc2cc(N3CCN(C)CC3)nc(Sc3ccc(NC(=O)C4CC4)cc3)n2)n[nH]1 [Tozasertib] + N.N.[Cl][Pt][Cl] [cisplatin] (first compound 0.006 µM, partner dose 1.6 µM) | 91%
COc1cc2ncnc(Nc3ccc(Oc4ccccc4)cc3)c2cc1OC + C/C(O)=C(\C#N)C(=O)Nc1cc(Br)ccc1Br [LFM-A13] (first compound 2 µM, partner dose 2 µM) | 93.9%
O=C(O)C(=O)Nc1sc2c(c1C(=O)O)CCNC2 + O=C(Oc1ccc([N+](=O)[O-])cc1)N1CCC(C(O)(c2ccc3c(c2)OCO3)c2ccc3c(c2)OCO3)CC1 [JZL184] (first compound 1.66667 µM, partner dose 1 µM) | 97.8%
CC(C)C[C@H](NC(=O)[C@H](Cc1ccccc1)NC(=O)c1cnccn1)B(O)O [Bortezomib] + N.N.[Cl][Pt][Cl] [cisplatin] (first compound 0.001 µM, partner dose 1.6 µM) | 98.3%
CC(C)C[C@H](NC(=O)[C@H](Cc1ccccc1)NC(=O)c1cnccn1)B(O)O [Bortezomib] + C[As](C)SC[C@H](NC(=O)CC[C@H](N)C(=O)O)C(=O)NCC(=O)O [Darinaparsin] (first compound 0.001 µM, partner dose 0.4 µM) | 91%
Cc1nc(Nc2ncc(C(=O)Nc3c(C)cccc3Cl)s2)cc(N2CCN(CCO)CC2)n1 [dasatanib] + C/C(O)=C(\C#N)C(=O)Nc1cc(Br)ccc1Br [LFM-A13] (first compound 0.004 µM, partner dose 2 µM) | 62.8%
Cn1c(Nc2ccc(C(F)(F)F)cc2)nc2cc(Oc3ccnc(-c4ncc(C(F)(F)F)[nH]4)c3)ccc21 + O=C(Oc1ccc([N+](=O)[O-])cc1)N1CCC(C(O)(c2ccc3c(c2)OCO3)c2ccc3c(c2)OCO3)CC1 [JZL184] (first compound 0.08 µM, partner dose 1 µM) | 39.7%
C#Cc1cccc(Nc2ncnc3cc(OCCOC)c(OCCOC)cc23)c1 [erlotinib] + C[As](C)SC[C@H](NC(=O)CC[C@H](N)C(=O)O)C(=O)NCC(=O)O [Darinaparsin] (first compound 0.8 µM, partner dose 0.4 µM) | 77%
Nc1ccn([C@@H]2O[C@H](CO)[C@@H](O)C2(F)F)c(=O)n1 [gemcitabine] + C[As](C)SC[C@H](NC(=O)CC[C@H](N)C(=O)O)C(=O)NCC(=O)O [Darinaparsin] (first compound 0.0004 µM, partner dose 0.4 µM) | 105%
COc1cc(N2CCC(N3CCN(C)CC3)CC2)ccc1Nc1ncc(Cl)c(Nc2ccccc2S(=O)(=O)C(C)C)n1 + O=C(Oc1ccc([N+](=O)[O-])cc1)N1CCC(C(O)(c2ccc3c(c2)OCO3)c2ccc3c(c2)OCO3)CC1 [JZL184] (first compound 0.08 µM, partner dose 1 µM) | 97.1%
Cn1c(Nc2ccc(C(F)(F)F)cc2)nc2cc(Oc3ccnc(-c4ncc(C(F)(F)F)[nH]4)c3)ccc21 + C/C(O)=C(\C#N)C(=O)Nc1cc(Br)ccc1Br [LFM-A13] (first compound 0.08 µM, partner dose 2 µM) | 31.7%
CO[C@H]1C[C@@H]2CC[C@@H](C)[C@@](O)(O2)C(=O)C(=O)N2CCCC[C@H]2C(=O)O[C@H]([C@H](C)C[C@@H]2CC[C@@H](OCCO)[C@H](OC)C2)CC(=O)[C@H](C)/C=C(\C)[C@@H](O)[C@@H](OC)C(=O)[C@H](C)C[C@H](C)/C=C/C=C/C=C/1C [everolimus] + C[As](C)SC[C@H](NC(=O)CC[C@H](N)C(=O)O)C(=O)NCC(=O)O [Darinaparsin] (first compound 0.02 µM, partner dose 0.4 µM) | 60%
C=CCn1c(=O)c2cnc(Nc3ccc(N4CCN(C)CC4)cc3)nc2n1-c1cccc(C(C)(C)O)n1 + O=C(Oc1ccc([N+](=O)[O-])cc1)N1CCC(C(O)(c2ccc3c(c2)OCO3)c2ccc3c(c2)OCO3)CC1 [JZL184] (first compound 0.02 µM, partner dose 1 µM) | 88.7%
